The results in this text go back to publication PMC12136788.

The labels stand for the following.
B1: 48028008_48028128_2607_CDS_ENSG00000116062_ENST00000540021|human|control|control (ssRNA)
RNA: GGGAGUUCUACAGUCCGACGAUCGCCCUUCUUGGUAGAUUUCAACUCGUAUUCUUCUGGCAAAUUGCGAGUGGUGAAAUUCUCAGGAAUUUCCAGCUGGUAACGGUUCCUACCAAUCCCCCAAUAGACUAUGGUCCUACAGCCCAACAGAGGAUUGAGCAUCA
B2: chr7:99057753:99057754:-_ENSG00000241468_ENST00000394186|hu_hu|FALSE|FALSE (ssRNA)
RNA: GGGAGUUCUACAGUCCGACGAUCCCGGUAGUAACCUCUUUGAAACGCUCCGAAAAUGCCACUAGGACUGAAGUCCCGCAUCAAGAUCCAGCUUGGCAGCUCCCCCAGUUUGACCUCCAGAAGUUUCUUGUCCUUCACUGGUACCAACAGAGGAUUGAGCAUCA
B3: chr1:93811951:93811952:+_ENSG00000117505_ENST00000370267|hu_hu|FALSE|FALSE (ssRNA)
RNA: GGGAGUUCUACAGUCCGACGAUCGAGUUUGGGAAGAAAGUGGGGGCCCGAGGAUUCUAGAGAGAGCACAGCCCAGGCUGAGGAGGGGAAAGCGCGGUGGUCCGGAAAUUUGAGCGGCUGGGGAACCACCUUCGUGUCUCCUCACAACAGAGGAUUGAGCAUCA
B4: 31426652_31426772_2533_CDS_ENSG00000134644_ENST00000257075|human|control|control (ssRNA)
RNA: GGGAGUUCUACAGUCCGACGAUCCAAAAGCCUGCUCCUGCCAGAAGGCAUGACAUCAGACAUUCCAUAUCGCAAACGAGAGGAAGAGAAAAGAGUGCUGCUCGGGCUGAAGAGGCUGGAGGCGCUGCUUGCACUGCGGUACUUCAACAGAGGAUUGAGCAUCA
B5: chr17:87533601:87533602:+_ENSMUSG00000037104_ENSMUST00000041369|mus_mus|FALSE|FALSE (ssRNA)
RNA: GGGAGUUCUACAGUCCGACGAUCUGUUGAGUGUGGGCUCACAGGGGCGGUAUGCUGUUUAAUCAAAUGCCACUUUUGUGCUAAAUCCGAGCCAGCAGGAAAAGGGCAUUUCUCCAGCAUUAAUUCAGAAAGAUGUAUUUUUCUCAACAGAGGAUUGAGCAUCA
B6: chr7:141450121:141450122:+_ENSG00000106028_ENST00000265304|hu_mus|hu_hu_hu_mus_True|1_68 (ssRNA)
RNA: GGGAGUUCUACAGUCCGACGAUCUCAUCCGUUCUAUGCCUUUUCUUUUGUCUGGUCACUCAGAAAUAUAAUAUUAUCAGCUAUGAUUGUUGUUGCUUGCCGCCUCACAUUGUUUUUAUCCAUGUACUCGCCAUAGUCUAUUUUCAACAGAGGAUUGAGCAUCA
B7: chr7:30948173:30948174:-_ENSMUSG00000037029_ENSMUST00000062181|mus_mus|FALSE|FALSE (ssRNA)
RNA: GGGAGUUCUACAGUCCGACGAUCGGAGGACUUCCAACUGUAUAAAGCAGAGGAUGUGUUCCCAUACAACUGUUUAAAUCUAAACUAUGUUUCAAGCUCAAAACUUUAAGCUUUGAACAAUGUUUUGCCUUUUAAAAAUUGAAGCAACAGAGGAUUGAGCAUCA
B8: chr10:94963105:94963106:-_ENSMUSG00000062981_ENSMUST00000075829|mus_hu|FALSE|FALSE (ssRNA)
RNA: GGGAGUUCUACAGUCCGACGAUCUUAUCAAGUGGUAUGAAAAAAGAUGUUCUGAAGAGAAACUGCUUUUAGAAUCUGCUUCUAAGCAUACCAAUUUCUACUCCUGCUUGACGGCUUCUCACCACGAACCCGCCAUCUUGUUUCCAACAGAGGAUUGAGCAUCA
B9: chr14:78183846:78183847:+_ENSG00000119705_ENST00000557342|hu_mus|FALSE|FALSE (ssRNA)
RNA: GGGAGUUCUACAGUCCGACGAUCUCUCAGAAAUCUUUCUUCAUCAGAUGUUUGAGCUCCGUGCAAAGCCUUUGCUCUUUGAGCUUGAACGUGGAUCUAUGGGAGGGAAAGCACUGUCAGAAAAGGUAAUUUUUUUUUUAAAGACAACAGAGGAUUGAGCAUCA
B10: chr6:146598974:146598975:+_ENSMUSG00000030291_ENSMUST00000032429|mus_mus|motif|central (ssRNA)
RNA: GGGAGUUCUACAGUCCGACGAUCCAGUGGCAAUUUCAGAGUUUUUUACUUAUCAAGAGUGAAAACAGAACACAAUGAAAACGGGCGGAAAAAAAAGGCAACACAGUCAUAGCAUAUGAUAUUCUGUAGCUGUUGGUAGGGCUUCAACAGAGGAUUGAGCAUCA
B11: chr1:109605286:109605287:-_ENSG00000197780_ENST00000461096|hu_mus|hu_hu_hu_mus_True|28_98 (ssRNA)
RNA: GGGAGUUCUACAGUCCGACGAUCAAGUUUCAGAGUAUUCAGUGAUCACCUCUUUAAAUGCAAUUAUCCUUAUUAUAAGCUAAGCAGAAUAAUAAUUUAAUACCGUAAGUAAAUACAACACAAAGCCUGAACCGCGAAAAUGGUCAACAGAGGAUUGAGCAUCA
B12: chr9:80412558:80412559:-_ENSG00000156052_ENST00000286548|hu_hu|FALSE|FALSE (ssRNA)
RNA: GGGAGUUCUACAGUCCGACGAUCGGUGGGGACUCGAACUCUAAGCACAUCUUGUUGCGUAGGCAGGUAGGCAGGGUCAGCUACGCGGUCCAAGUCAUUAAGAUAGUAUUUGGUAGAGUCAGAUAAUUGAUAUUCUCGUCGUCUCAACAGAGGAUUGAGCAUCA
B13: chr16:94651144:94651145:+_ENSMUSG00000040785_ENSMUST00000117648|mus_mus|FALSE|FALSE (ssRNA)
RNA: GGGAGUUCUACAGUCCGACGAUCCUUCUCUUGGAUCAAGUGACCGAUAACAUAGUCCACUGCUUCAUGGACAAAAUUUUUGCUAGAAAAGCAUGUUGUAUAGUCUUCCGUGCUCAGAACCUUCCAAGAGAGCAGCUCUUUGAGCAACAGAGGAUUGAGCAUCA
B14: chr7:149068622:149068623:-_ENSMUSG00000025139_ENSMUST00000001950|mus_hu|mus_mus_mus_hu_False|8_78 (ssRNA)
RNA: GGGAGUUCUACAGUCCGACGAUCGUGAGGCCUCUGAGUGUGGCUUGUGGUCUGUCCUGUCUGCAGUUUGUUAAUAUCACGGAACAUACCAUCUAGAACGUUCCAGUCCCGCCUGACACCUUCAUUCGCAAGAGGGCAGAAAUCCAACAGAGGAUUGAGCAUCA
B15: chr12:125510211:125510212:+_ENSG00000184992_ENST00000341446|hu_hu|motif|central (ssRNA)
RNA: GGGAGUUCUACAGUCCGACGAUCUUACUGUACAACUAAAUAUGGUUAUAUCCUUUGUUUAAAAAAUAUUUUUUCCCCCACGGAUUACACUUCGUGUGUAGUUCCACGUCAAUGAUCUUUCCGCUCUUCUGGGAAUGUGUCCUACAACAGAGGAUUGAGCAUCA
B16: chr4:148551591:148551592:-_ENSMUSG00000063077_ENSMUST00000060537|mus_hu|mus_mus_mus_hu_False|8_8 (ssRNA)
RNA: GGGAGUUCUACAGUCCGACGAUCACCUGACAAAAUUAAAUAUCCCUGUAAAUUAGACAAUAAGCAGCAGGCAACAAAGUCUUUGCUUUGGAAUAUGUGCCAGGAAAAGUCAUCUUGUUUUUAGAUCACACCUUUCAGUUCACACAACAGAGGAUUGAGCAUCA
B17: chr5:128440902:128440903:+_ENSG00000066583_ENST00000173527|hu_mus|hu_hu_hu_mus_True|8_18 (ssRNA)
RNA: GGGAGUUCUACAGUCCGACGAUCUUGAACGGUGCUGCCAAGUCCUUUGGGGUAUUGUUCCGUUAUGAUAACUGGAAUCCCUAAGAUCCGAGCUCCUUGCAACAGUCUCUGUCCCACGCUAAUAAUAUCCCCAAAAUAUUUGAUCAACAGAGGAUUGAGCAUCA
B18: chr14:49633609:49633610:-_ENSMUSG00000061244_ENSMUST00000162175|mus_hu|FALSE|FALSE (ssRNA)
RNA: GGGAGUUCUACAGUCCGACGAUCUUUGCCUUCUGACAGCAACAUUUUCUAGGAUAAAAACAGUGACAUGUAGUUUUAGAGAAUCUGAAAUUUCUACAUUCAAGAAUGGAAUUAAAAUUCAAUGUGAGGGGAAAAAAGCAAAAUCAACAGAGGAUUGAGCAUCA
B19: chr14:76904430:76904431:+_ENSMUSG00000022010_ENSMUST00000022587|mus_mus|mus_mus_mus_hu_True|18_78 (ssRNA)
RNA: GGGAGUUCUACAGUCCGACGAUCUGCAGCCAAAAACACCCUCGUGGAAAAAAAGAGCAAGCUCCAGCAGCCUUGUAUAAGCUAGAUAAAAUCUUCUGGCUUUCCGCAGCCCAGGGAGUGAGAACGGACGGCAGCCCUAAUUUACAACAGAGGAUUGAGCAUCA
B20: chr14:78183846:78183847:+_ENSG00000119705_ENST00000557342|hu_hu|hu_hu_hu_mus_False|58_68 (ssRNA)
RNA: B9 RNA with G67A, C68G, C69U, C74G, U75C, U79C, G80U, C83U, U84G
B21: 138089142_138117674_91_3pUTR_ENSG00000044115_ENST00000302763|human|control|control (ssRNA)
RNA: GGGAGUUCUACAGUCCGACGAUCUGAUCUCUAGACUUUUAGGAUCCCACUUGAAGUUUAUGUUGCCUGCAUGGACAGCAGUCAUUUCUGCGGCUAGCUGGGCGAGCGCUAAAUUCCAGAGGCCCGAAGCAGACGGGCGCUGCUCAACAGAGGAUUGAGCAUCA
B22: chr16:18872548:18872549:-_ENSMUSG00000022706_ENSMUST00000023391|mus_mus|FALSE|FALSE (ssRNA)
RNA: GGGAGUUCUACAGUCCGACGAUCCUGGUAGUUAGAGAUAGGUGGUGUGUAAUGUGGCCCUUCUUUCUCGAAGGGGAAUAGGCUGGUAUCCCGCUUUAUGGCCUCGGCAUAGAGCUCUGCAGAUUCAAGUUUCAGCUCCUCCAGCAACAGAGGAUUGAGCAUCA

Changes are numbered by the printed parent chain. This is one part of the list.

For the assay, the target named is T1, UNK ZnF1-3 (human, UniProt Q9C0B0 31-174).
T1 sequence: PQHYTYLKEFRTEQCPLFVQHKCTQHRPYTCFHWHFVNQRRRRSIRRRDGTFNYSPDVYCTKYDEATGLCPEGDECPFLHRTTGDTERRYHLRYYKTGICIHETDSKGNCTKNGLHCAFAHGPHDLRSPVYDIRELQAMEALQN
Briefly: nsRBNS (natural sequence RNA bind-n-seq); RBNS binding buffer (assumed for nsRBNS): 25 mM Tris pH 7.5, 150 mM KCl, 3 mM MgCl2, 0.01% Triton X-100, 500 ug/ml BSA, 20 U/ml SUPERase-In, 4 C; UNK is unkempt and MSI1 is Musashi-1; names of the RNAs are library labels; protein concentration not given here; high values mean tight binding.
As for B1, the binding signal stood at 0.791 enrichment R.
For B2 the value was 1.21 enrichment R.
B3: the binding signal came out at 1.85 enrichment R.
Then B4, with 1.44 enrichment R.
Then B5, with 0.691 enrichment R.
Then B6, with 0.527 enrichment R.
Take B7: the binding signal worked out at 0.906 enrichment R.
For B8 the value was 0.555 enrichment R; for B9, 1.01 enrichment R.
For B10 the value was 1.8 enrichment R; for B11, 0.996 enrichment R.
On to B12, for which the binding signal is 1.26 enrichment R.
For B13 the value was 0.604 enrichment R; for B14, 0.928 enrichment R.
In the case of B15, the binding signal is 0.705 enrichment R.
Then B16, with 1.26 enrichment R; and B17, with 0.906 enrichment R.
For B18 the value was 1.34 enrichment R; for B19, 1.98 enrichment R; for B20, 1.71 enrichment R.
Then B21, with 0.872 enrichment R; and B22, with 0.852 enrichment R.
